This is one part of the list. These are noisy estimates, calculated here from bound and input reads.
The sequences below were run against T1, Pho4 (S. cerevisiae) (UniProt P07270) (assay: relative binding free energy (BET-seq); higher = weaker binding). Details: reference: library average.
T1 sequence: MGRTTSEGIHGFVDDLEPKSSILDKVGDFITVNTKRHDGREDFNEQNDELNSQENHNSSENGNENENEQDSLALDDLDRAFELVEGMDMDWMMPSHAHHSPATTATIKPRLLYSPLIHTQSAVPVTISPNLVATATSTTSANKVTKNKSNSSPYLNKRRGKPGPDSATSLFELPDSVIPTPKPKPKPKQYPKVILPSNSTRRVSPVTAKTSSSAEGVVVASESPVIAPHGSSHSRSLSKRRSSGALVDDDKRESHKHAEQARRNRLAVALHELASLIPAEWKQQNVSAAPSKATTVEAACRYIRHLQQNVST

Sequence | relative binding free energy
TCTTACACGTGGGGGG | 0.1 kcal/mol
GGGGTCACGTGGAGAA | 0.16 kcal/mol
GTGCGCACGTGGTAGA | -0.05 kcal/mol
GTTGTCACGTGCTCTG | 0.03 kcal/mol
AAGAACACGTGGGGTT | -0.17 kcal/mol
TTAATCACGTGTGACA | 0.25 kcal/mol
AGGTGCACGTGAGCAT | 0.08 kcal/mol
AGATTCACGTGGGTGC | 0.24 kcal/mol
GGCGGCACGTGTATTA | 0.06 kcal/mol
TGGGTCACGTGTCTCA | 0.16 kcal/mol
GGTAGCACGTGTTGCT | -0.03 kcal/mol
ACTTTCACGTGGGTAG | 0.1 kcal/mol
GTGGACACGTGTGCGT | 0 kcal/mol
AGTTACACGTGATCGG | 0.13 kcal/mol
GAAGGCACGTGGTCTG | -0.24 kcal/mol
GTCGCCACGTGTGTGT | -0.1 kcal/mol
TAATTCACGTGTGTAA | 0.09 kcal/mol
TTATTCACGTGGTTCT | 0.11 kcal/mol
TTGCTCACGTGTTTAG | 0.25 kcal/mol
ATTAGCACGTGTAAGA | 0.19 kcal/mol
TGAAACACGTGGTGAG | -0.11 kcal/mol
GTTAGCACGTGACGTT | 0.23 kcal/mol
AGAGACACGTGGTAGG | -0.01 kcal/mol
AGCGGCACGTGGCGTT | -0.29 kcal/mol
TTTGTCACGTGAGTGA | 0.32 kcal/mol

Sequence | relative binding free energy
TATGTCACGTGGGCGA | -0.11 kcal/mol
TATTTCACGTGCCAGT | 0.38 kcal/mol
TTACGCACGTGAGTGA | 0.08 kcal/mol
AGGTCCACGTGGTTAT | 0.11 kcal/mol
CTTGGCACGTGGATTG | -0.1 kcal/mol
TTGGCCACGTGGGCTT | -0.19 kcal/mol
GGGGGCACGTGCTTCG | -0.17 kcal/mol
AAGTACACGTGGTTTT | 0.1 kcal/mol
CGCCGCACGTGTTGGG | -0.07 kcal/mol
GTGGACACGTGTGGCG | 0.16 kcal/mol
GTTGTCACGTGTATTT | 0.29 kcal/mol
TGATACACGTGATCGG | 0.19 kcal/mol
TCGGGCACGTGTGTTG | -0.03 kcal/mol
GCAGTCACGTGGTTTG | 0.17 kcal/mol
TTGGACACGTGAGGGA | 0.23 kcal/mol
GGAAGCACGTGGTGAA | -0.16 kcal/mol
TTCTGCACGTGTAGCT | 0.03 kcal/mol
CTGGGCACGTGGGCAC | -0.03 kcal/mol
TGTATCACGTGAGTCT | 0.32 kcal/mol
AGGGGCACGTGTTTTT | -0.1 kcal/mol
GTATACACGTGTCGGT | 0.09 kcal/mol
CGTAGCACGTGGGTCG | -0.22 kcal/mol
TTGGTCACGTGAACTT | 0.4 kcal/mol
TAGTGCACGTGAATAT | 0.14 kcal/mol
TGCAGCACGTGACGGG | 0.01 kcal/mol

Sequence | relative binding free energy
TTTTACACGTGAGTGG | 0.22 kcal/mol
AGTTACACGTGATGGA | 0.31 kcal/mol
GGGTTCACGTGCTATG | 0.32 kcal/mol
AGTTTCACGTGTGGAT | 0.21 kcal/mol
ATTGTCACGTGGTAGA | 0.09 kcal/mol
ATTTACACGTGAAGTA | 0.35 kcal/mol
ATGCTCACGTGTGGAG | 0.26 kcal/mol
GATTCCACGTGAGTGT | 0.31 kcal/mol
AAATTCACGTGTTTAT | 0.27 kcal/mol
TTTGTCACGTGTGAGA | 0.21 kcal/mol
GCGTTCACGTGATGAG | 0.36 kcal/mol
CTTGGCACGTGTGTAC | -0.1 kcal/mol
TGGGGCACGTGTTCCT | -0.17 kcal/mol
AGAGTCACGTGGACGT | 0.05 kcal/mol
GCATTCACGTGGGGGG | 0.16 kcal/mol
TCTGTCACGTGTTTGA | -0.02 kcal/mol
ATGTACACGTGTGTAA | -0.01 kcal/mol
GGGTACACGTGAATAG | 0.34 kcal/mol
TTGTGCACGTGTACGG | 0.06 kcal/mol
GGGTACACGTGTAGAG | 0.16 kcal/mol
GGGCTCACGTGATATT | 0.38 kcal/mol
CGTCGCACGTGAGTAG | 0.45 kcal/mol
TTAATCACGTGTTTAG | 0.05 kcal/mol
CTAATCACGTGTGGGG | 0.17 kcal/mol
GTGGGCACGTGCAAGG | -0.1 kcal/mol

Sequence | relative binding free energy
GGCGTCACGTGTCGTA | 0.24 kcal/mol
TTATTCACGTGTTGCG | 0.34 kcal/mol
ATGCGCACGTGAGCGG | 0.03 kcal/mol
GTCGGCACGTGCGTTG | -0.04 kcal/mol
GAGTGCACGTGTGGTG | 0.06 kcal/mol
AGTCTCACGTGGGTGA | 0.12 kcal/mol
CGGAGCACGTGGTATG | -0.18 kcal/mol
CGGGACACGTGTTGAT | 0.1 kcal/mol
AAGGCCACGTGCGGGG | -0.2 kcal/mol
GGGGTCACGTGTGGGC | 0.29 kcal/mol
ATTGTCACGTGATAGG | 0.29 kcal/mol
TGACCCACGTGGGGGG | -0.3 kcal/mol
TGTATCACGTGGGCGA | -0.01 kcal/mol
CTCTACACGTGAGGTG | 0.41 kcal/mol
TGATGCACGTGATAAT | 0 kcal/mol
GTGCACACGTGTGGCT | 0.22 kcal/mol
TTATGCACGTGTTAAA | -0.05 kcal/mol
TTGAACACGTGGTAGT | -0.03 kcal/mol
GGGAACACGTGCAGGG | 0.01 kcal/mol
GCTGGCACGTGGTTGA | -0.16 kcal/mol
CCAGGCACGTGTGGGA | -0.09 kcal/mol
TATGTCACGTGGGCCT | -0.12 kcal/mol
TTTAACACGTGGTGAT | -0.03 kcal/mol
TTTGTCACGTGGCAAT | 0.03 kcal/mol
TCTGGCACGTGACTGT | -0.09 kcal/mol

Sequence | relative binding free energy
GGAGGCACGTGGAGAC | 0.01 kcal/mol
GTTTGCACGTGCTGAG | -0.19 kcal/mol
AAGGGCACGTGGTGAG | -0.18 kcal/mol
GGAAACACGTGTGGAT | 0.12 kcal/mol
TTGTGCACGTGAATAG | 0.22 kcal/mol
GTTTGCACGTGGAATT | 0.12 kcal/mol
AGGGGCACGTGGAGGA | -0.08 kcal/mol
TTGCTCACGTGTTGGG | 0.18 kcal/mol
ACTGGCACGTGCTGTT | -0.12 kcal/mol
ATTTCCACGTGGTTAG | 0.02 kcal/mol
AATGGCACGTGTTCAT | 0.03 kcal/mol
CATGTCACGTGTGGCT | 0.02 kcal/mol
AATTTCACGTGGGCTT | 0.24 kcal/mol
GGGTGCACGTGGTACT | -0.02 kcal/mol
TGATACACGTGGGGAG | 0 kcal/mol
TTCGACACGTGTCGTG | 0.03 kcal/mol
GTCAACACGTGTGGTT | 0.09 kcal/mol
CAAGTCACGTGGTTGA | 0.18 kcal/mol
GATTGCACGTGAAGTT | 0.35 kcal/mol
TGTATCACGTGTGTGA | 0.12 kcal/mol
TTGGGCACGTGGGCGC | -0.15 kcal/mol
GGTGGCACGTGAAGGC | 0.22 kcal/mol
TTTAGCACGTGGCCGT | -0.24 kcal/mol
CGGTTCACGTGTTAGC | 0.23 kcal/mol
GTGCGCACGTGTGGAT | -0.01 kcal/mol

Sequence | relative binding free energy
GATTACACGTGGGAAG | 0.17 kcal/mol
ATGTGCACGTGGTGCC | -0.22 kcal/mol
AATTACACGTGTTGTC | 0.2 kcal/mol
ATTATCACGTGAATTA | 0.24 kcal/mol
GAGGTCACGTGTTGAT | 0.24 kcal/mol
TAATTCACGTGGGGTG | 0.05 kcal/mol
CTTCGCACGTGGGGAG | -0.18 kcal/mol
AGGTTCACGTGATGTG | 0.3 kcal/mol
CGTTGCACGTGGTTTT | -0.02 kcal/mol
TTTTTCACGTGTATAA | 0.18 kcal/mol
AAATTCACGTGGGTTT | 0.02 kcal/mol
GAAGACACGTGTTTGT | -0.05 kcal/mol
ATATGCACGTGTGTCG | -0.1 kcal/mol
GTTCGCACGTGGCAGT | 0.05 kcal/mol
AGGGACACGTGGAAGT | 0.1 kcal/mol
GGGGTCACGTGAGTAA | 0.3 kcal/mol
GGATGCACGTGTGAAT | 0.21 kcal/mol
GGTTTCACGTGCTTCG | 0.44 kcal/mol
AGAGTCACGTGTGGAA | 0.25 kcal/mol
GTTACCACGTGGGGTT | -0.23 kcal/mol
GAAAGCACGTGGGCGT | -0.08 kcal/mol
